Measured values: US20220348651A1, “ENTPD2 ANTIBODIES, COMBINATION THERAPIES, AND METHODS OF USING THE ANTIBODIES AND COMBINATION THERAPIES” (Novartis AG, priority 2019, published 2022)

Legend:
[1] = biological target: T1, Human ENTPD1 (Homo sapiens, UniProt P49961); test: Cross reactivity: FACS binding to human ENTPD1 expressing NIH/3T3 cells; details: NIH/3T3-ENTPD1 cells, 50 nM antibody
T1 construct: expressed in transfected cells; host or cells: NIH/3T3 (retroviral transduction, FACS-sorted)
T1 sequence (P49961 1-510): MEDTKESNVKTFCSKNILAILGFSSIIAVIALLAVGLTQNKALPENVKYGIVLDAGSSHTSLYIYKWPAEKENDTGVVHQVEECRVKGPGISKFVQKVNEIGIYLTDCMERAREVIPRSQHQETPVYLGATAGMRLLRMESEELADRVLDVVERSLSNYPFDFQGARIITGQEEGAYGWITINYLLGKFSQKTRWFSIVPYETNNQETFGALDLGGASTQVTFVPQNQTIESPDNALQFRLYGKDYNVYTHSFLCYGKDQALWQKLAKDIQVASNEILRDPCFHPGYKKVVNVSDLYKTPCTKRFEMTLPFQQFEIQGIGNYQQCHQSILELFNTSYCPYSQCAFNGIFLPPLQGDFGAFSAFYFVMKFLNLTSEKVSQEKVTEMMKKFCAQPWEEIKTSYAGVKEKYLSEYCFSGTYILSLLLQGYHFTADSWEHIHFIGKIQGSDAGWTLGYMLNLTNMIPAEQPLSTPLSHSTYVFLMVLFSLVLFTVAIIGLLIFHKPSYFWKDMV
Method: (§1) FACS screening: Specific binding of candidate antibodies to endogenously expressed ENTPD2 was assessed by flow cytometry. Cells were rinsed thoroughly with 1×PBS and treated with Accutase (Millipore #SCR005) to lift from growth plates and resuspended at approximately 1×10^5 cells/90 μL in 1× FACS buffer (2% FBS+0.1% NaN3 in PBS). In a 96-well U-bottom plate, 10 μL of 10× antibody solution in FACS buffer was pre-seeded and 90 μL of cell suspension was added. Cell were incubated for 30 minutes at 4° C., washed 1× with cold PBS and resuspended in 100 μL of 1:500 secondary antibody 1× FACS buffer (Allophycocyanin conjugated F(ab′)2 goat anti-human IgG, Fcγ specific; Jackson Immunoresearch, Cat#109-136-098). After additional incubation for 15 min at 4° C., cells were washed twice with PBS and resuspended in 100 μL of 1×FACS buffer with 4 μg/mL propidium iodide (Life Technologies, Cat#P3566). Geometric mean fluorescence intensity was calculated on live single cells using FlowJo software.
(§2) Cross reactivity Human ENTPD1 (NP_001767) expressing NIH/3T3 cells were generated using a retroviral transduction approach. 72 hrs post transduction, engineered cells were stained with the anti-Human CD39/ENTPD1 APC-conjugated Antibody (R&D systems, Minneapolis, Minn.) and live cells that expressed human ENTPD1 were separated from the rest of the population via fluorescence activated cell sorting. […]

[2] = tested on: H520 cells; test: Cross reactivity: FACS binding to H520 cells (ENTPD3 and ENTPD8 expression); set-up: species or system human; details: 50 nM antibody
Method: as §1
H520 cells were identified as a cancer cell line with ENTPD3 (Ct 25) and ENTPD8 (Ct 26) expression by Taqman and were used for selectivity screening.

[3] = tested on: NIH/3T3 cells; test: Cross reactivity: FACS binding to NIH/3T3 control cells; details: 50 nM antibody
Method: as §1, §2

Measured: Apparent FACS binding at 50 nM

B1: ANTI-HUMAN ENTPD2 MAB4 (antibody)
heavy: QIQLQESGPGLVKPSQTLSLTCTVSGYSITSGYYWNWIRQHPGKGLEWIGYISYDADNNYNPSLKNRVTISRDTSKNQFSLKLSSVTAADTAVYYCAGGYYRYGLGSYRGSYYYVMDYWGQGTTVTVSSASTKGPSVFPLAPSSKSTSGGTAALGCLVKDYFPEPVTVSWNSGALTSGVHTFPAVLQSSGLYSLSSVVTVPSSSLGTQTYICNVNHKPSNTKVDKRV[here human IgG1 Fc without letters]
light: ETVLTQSPATLSVSPGERATISCKASQSVDYEGHSYMNWYQQKPGQAPRLLIYAASNLESGIPARFSGSGSGTDFTLTISSVEPEDAATYYCQQSNEDPPTFGGGTKLEIKRTVAAPSVFIFPPSDEQLKSGTASVVCLLNNFYPREAKVQWKVDNALQSGNSQESVTEQDSKDSTYSLSSTLTLSKADYEKHKVYACEVTHQGLSSPVTKSFNRGEC
No binding: [1] | [2] | [3]

B2: ANTI-HUMAN ENTPD2 MAB5 (antibody)
heavy: QIQLQESGPGLVKPSQTLSLTCTVSGYSITSGYYWNWIRQHPGKGLEWIGYISYDADNNYNPSLKNRVTISRDTSKNQFSLKLSSVTAADTAVYYCAGGYYRYGLGSYRGSYYYVMDYWGQGTTVTVSSASTKGPSVFPLAPSSKSTSGGTAALGCLVKDYFPEPVTVSWNSGALTSGVHTFPAVLQSSGLYSLSSVVTVPSSSLGTQTYICNVNHKPSNTKVDKRV[here human IgG1 Fc without letters]
light: ETVLTQSPATLSVSPGERATISCKASQSVDYDGNSYMNWYQQKPGQAPRLLIYAASNLESGIPARFSGSGSGTDFTLTISSVEPEDAATYYCQQSNEDPPTFGGGTKLEIKRTVAAPSVFIFPPSDEQLKSGTASVVCLLNNFYPREAKVQWKVDNALQSGNSQESVTEQDSKDSTYSLSSTLTLSKADYEKHKVYACEVTHQGLSSPVTKSFNRGEC
No binding: [1] | [2] | [3]
